In PMC5836133:
The other results are listed elsewhere or left out. At the low end of the ranking, values are background and their order means little.

What follows are sequences tested on T1, GST-NbGlk1(82-244) (assay: protein-binding microarray). Settings: NbGlk1 is a Golden2-like transcription factor of Nicotiana benthamiana; high values mean tight binding; most listed sequences are background and not binding sites; double strand, one strand shown.
T1 sequence: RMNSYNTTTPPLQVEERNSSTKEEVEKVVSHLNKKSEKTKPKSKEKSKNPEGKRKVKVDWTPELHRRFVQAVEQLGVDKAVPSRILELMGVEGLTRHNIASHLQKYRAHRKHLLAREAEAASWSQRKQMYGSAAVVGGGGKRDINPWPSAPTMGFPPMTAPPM
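Note: rank-based score ranging −0.5 to +0.5 with E above 0.45 taken as significant binding.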

Sequence	binding signal
AAATTTAT	0.22 E-score
ACAACATC	0.148 E-score
ACGAGCCT	-0.189 E-score
ACAGTGGT	-0.161 E-score
ACTGTGCG	-0.0753 E-score
ATTTTAGG	0.166 E-score
AGCATGAC	-0.249 E-score
CAAGGCTA	-0.341 E-score
AGATAACA	0.0981 E-score
ATGGGAAG	-0.15 E-score
AGGCTGGG	-0.18 E-score
AATGCTAT	0.0771 E-score
AAGAGCAT	-0.117 E-score
ACTCTGAA	-0.0906 E-score
AACCGCGT	0.0236 E-score
AGCCGACA	-0.142 E-score
ATCTCTTG	0.379 E-score
ACCATATC	0.319 E-score
CAACAAGC	-0.0726 E-score
AACCACGC	-0.0885 E-score
CACCGGTC	-0.18 E-score
AGATACCC	0.352 E-score
CAACGAGG	-0.0756 E-score
AATCAGTC	0.159 E-score
AGCATGAA	-0.0657 E-score

Sequence	binding signal
ACTGTCAT	-0.0801 E-score
AGCTGACT	-0.227 E-score
AAACCAAC	0.0899 E-score
AGAGCAGA	-0.0466 E-score
AACACGAG	-0.00728 E-score
AACTGTAT	-0.0473 E-score
CACGTCAG	-0.169 E-score
ACACTGCA	-0.0524 E-score
AGTGATTG	0.153 E-score
ATCGTAAG	0.172 E-score
AGAGTTCC	-0.223 E-score
AGTTAAGC	-0.142 E-score
ACTCTTAA	-0.0344 E-score
AGTCGCCG	-0.274 E-score
AACTCCGG	-0.142 E-score
AGTATTAA	-0.0267 E-score
ACCGGTTA	-0.0559 E-score
AACTGCAG	-0.159 E-score
ACCCCTTG	-0.18 E-score
ATACGAGA	0.231 E-score
ACAAAAAA	0.224 E-score
ATTTCGTA	0.399 E-score
AAATACTT	0.149 E-score
ACGATCGG	0.154 E-score
AGACATGG	-0.0128 E-score

Sequence	binding signal
CACGCCAG	-0.23 E-score
ATCGATCC	0.0645 E-score
ATCCCATC	0.176 E-score
AACCGGTA	-0.1 E-score
AGTCCACC	-0.244 E-score
ATGAATGC	-0.035 E-score
AATGAGGT	0.042 E-score
ACACCCGT	-0.158 E-score
AGATTGAT	0.13 E-score
ACACATAT	0.168 E-score
CAGCGCAG	-0.158 E-score
AGGAGATA	0.228 E-score
ACGCCCAT	-0.216 E-score
AGCTCTCA	-0.122 E-score
AACCATGT	-0.0886 E-score
ACGGGTAG	-0.0863 E-score
AGCCTTGC	-0.394 E-score
AGGGATAG	-0.0799 E-score
ATTGTTGA	-0.0209 E-score
AGCTCGTC	-0.208 E-score
AACACACA	-0.0394 E-score
AAGTCAGT	-0.0101 E-score
AACGTGTA	-0.105 E-score
ACCAACAG	-0.0883 E-score
AATCGGTG	0.184 E-score

Sequence	binding signal
ATCATGTG	0.131 E-score
AGGCCGGG	-0.329 E-score
ATTCATAG	0.0968 E-score
AACATAAT	0.233 E-score
AGTCCGAA	-0.066 E-score
AAGGTTGA	-0.057 E-score
AATAAGAT	0.3 E-score
ATTCCATC	0.151 E-score
ACATTAGA	0.141 E-score
ATCACTCG	0.0719 E-score
ACACGTTA	-0.0247 E-score
AATTCCAT	0.155 E-score
CAATCGGC	0.0817 E-score
CAACAATG	0.0445 E-score
ATGAAATG	-0.0458 E-score
AAATAGTA	0.0113 E-score
AGCTAAGC	-0.168 E-score
AATGGACT	-0.167 E-score
ATTCGAAG	0.135 E-score
AGTTACTC	-0.0457 E-score
CACTCCAG	-0.152 E-score
CACAAGGA	-0.0555 E-score
AGGGGATC	0.316 E-score
AGGGCACA	-0.209 E-score
AACATTGA	-0.0186 E-score

Sequence	binding signal
ATACCGGC	-0.0511 E-score
AAGAGTAT	0.153 E-score
AGAAGTAC	-0.19 E-score
ATTTTGGA	0.3 E-score
ATTGGTTC	-0.0747 E-score
AAATGCAG	-0.0399 E-score
AAATCACG	0.381 E-score
AACCATAC	-0.104 E-score
ATGATTAC	0.302 E-score
AGAAGCCG	-0.277 E-score
ACGTCGTC	-0.0957 E-score
ATGGGACC	-0.264 E-score
ATTTACAC	0.193 E-score
AAACTAGT	-0.0599 E-score
ACAGATAG	0.0125 E-score
AGGATTTA	0.193 E-score
AATACAGG	0.15 E-score
AACCACGG	-0.124 E-score
AGTGGTTC	-0.0698 E-score
AGCTGCTC	-0.302 E-score
ACGCCAAG	-0.0875 E-score
ACACTACA	0.0864 E-score
CACACCTA	-0.0689 E-score
AATAGATT	0.406 E-score
ACGATGGC	-0.109 E-score

Sequence	binding signal
AATGGATA	0.3 E-score
CACGTCTA	-0.222 E-score
AGTTCGAA	0.00087 E-score
AGGTCGAA	-0.142 E-score
ATAAGGTG	-0.0935 E-score
AATTTTCG	0.198 E-score
AAGCTAGT	-0.147 E-score
AGATCACG	0.26 E-score
ACCCCGCA	-0.0991 E-score
AGACTGCA	-0.128 E-score
AAGGTATG	0.0486 E-score
AGCAGCCC	-0.307 E-score
ACGATAAC	0.0739 E-score
AGGCAATC	0.417 E-score
ATAGATTG	0.327 E-score
ATCGAGTG	-0.0298 E-score
ATCTGCGC	0.317 E-score
AAGGATGG	-0.12 E-score
ACAGGTCC	-0.255 E-score
ATGCGATG	0.0323 E-score
CAACATTA	0.029 E-score
AGCCGCAC	-0.156 E-score
ATTGACCC	-0.262 E-score
CAACTCAG	-0.0133 E-score
ACTAGAGA	-0.0483 E-score

Sequence	binding signal
ATTGCATG	0.221 E-score
AATGGAAG	-0.199 E-score
ACTAGAGG	-0.0997 E-score
AACACAGA	0.00497 E-score
ACGCCCGT	-0.108 E-score
ACGAACTA	-0.0769 E-score
CAATACTC	0.0245 E-score
AGATAGCC	-0.0206 E-score
ATCTTCCA	0.319 E-score
ACTGGAAC	-0.119 E-score
ACTAACAG	0.0406 E-score
ACTTAACG	0.049 E-score
AAACTTCG	-0.0377 E-score
CACAAATG	-0.0975 E-score
AGAAGTCA	-0.197 E-score
ATGGTCTA	-0.229 E-score
CAACATTG	0.0251 E-score
ACTGTTAC	0.0719 E-score
AAGGAAGC	-0.0753 E-score
ATAGCGAC	0.0028 E-score
AGTAGGGG	-0.124 E-score
AAGGTGAA	-0.0576 E-score
